# Data from PubChem BioAssay AID2147 (National Center for Advancing Translational Sciences (NCATS), 2009).
# Among all 230,000 compounds or so, about 3,600 (1.6%) were called active. This list was built around the results that the source calls inconclusive (neither active nor inactive); the mix of calls is not that of the screen. Calls follow the shape of the dose curve; as a rule, active = well fitted inhibition curve with a large enough effect (not every such curve was filed as active); inconclusive = small, poorly fitted or top-dose-only effect, or another doubt; inactive = no such curve, though single readings can be large or run the other way. Potencies beside an inconclusive call are fits to weak or partial responses and may not hold up.
# Biological target: Lysine-specific demethylase 4E (Homo sapiens) (UniProt B2RXH2)
# Sequence of UniProt B2RXH2 (B2RXH2 whole entry, looked up, the tested form may be a part): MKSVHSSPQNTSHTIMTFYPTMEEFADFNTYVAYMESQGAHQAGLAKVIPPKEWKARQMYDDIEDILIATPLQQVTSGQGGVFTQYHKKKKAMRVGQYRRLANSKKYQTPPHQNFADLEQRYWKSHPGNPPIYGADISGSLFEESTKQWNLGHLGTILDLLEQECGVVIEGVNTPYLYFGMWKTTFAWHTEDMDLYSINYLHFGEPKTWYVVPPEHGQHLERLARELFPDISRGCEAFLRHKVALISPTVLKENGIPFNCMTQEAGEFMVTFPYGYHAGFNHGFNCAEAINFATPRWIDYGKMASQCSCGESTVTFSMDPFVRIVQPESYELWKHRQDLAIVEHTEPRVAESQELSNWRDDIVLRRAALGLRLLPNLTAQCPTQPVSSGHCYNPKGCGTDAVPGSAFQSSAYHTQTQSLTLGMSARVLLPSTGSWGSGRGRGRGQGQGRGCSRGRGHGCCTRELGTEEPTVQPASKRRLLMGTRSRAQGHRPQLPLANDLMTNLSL
# Test: qHTS Assay for Inhibitors of Human Jumonji Domain Containing 2E (JMJD2E)
# Settings: JMJD2E catalytic domain, FDH-coupled NADH fluorescence (FDH is formaldehyde dehydrogenase); series mostly up to 57.1 µM; activity change, negative = inhibition: at the top concentration
# Also: nearly all actives have a fitted effect of over 50% in size.
# 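For activity change, negative = inhibition in this document: 0% = wells with enzyme and -100% = buffer wells without enzyme.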
# Potency is read from the fitted curve at half-maximal effect; tags tell the direction and shape of the fitted curve.
SMILES,"activity change, negative = inhibition",Potency
O=C(Nc1ccc2c(c1)OCO2)c1ccc(Br)o1,inactive: -3.94%,–
CN=C1c2cc3cc(OC)ccc3n2CCN1C,–,"inconclusive: 39.8 µM [inhibitor, single point]"
CCCCn1cnc2c([nH]c3ccccc32)c1=O,–,"inconclusive: 35.5 µM [inhibitor, single point]"
CCCC(=O)Nc1cc2c(cc1C(C)=O)OCCO2,–,"inconclusive: 39.8 µM [inhibitor, single point]"
COc1cc(NC(=O)c2cc(C3CC3)on2)c(OC)cc1Cl,inactive: -2.12%,–
Cc1ccc(C2NC(C(=O)O)CS2)cc1 (stereo not given),–,"inconclusive: 31.6 µM [inhibitor, partial curve]"
O=C(NCc1ccc2c(c1)OCO2)c1cccs1,inactive: -4.14%,–
COC(=O)NC(C(=O)OC)(C(=O)OC)c1ccccc1,inactive: 2.8%,–
CCN(CC)CCOc1cc2c(nn1)Oc1ccccc1N2C,–,"inconclusive: 12.6 µM [inhibitor, partial curve]"
Cc1ccc(C)c(N2CCN(Cc3nnnn3C3CCCCC3)CC2)c1,inactive: -20.9%,–
O=S(=O)(c1ccccc1)N1CCN=C1SCc1ccc(Cl)cc1,–,"inconclusive: 22.4 µM [inhibitor, single point]"
CN(C)c1ccc(-n2cc3c(=O)n(C)c(=O)n(C)c3c2)cc1,–,"inconclusive: 35.5 µM [inhibitor, partial curve]"
Cc1ccccc1NC(=S)NCc1ccccc1,–,"inconclusive: 39.8 µM [inhibitor, single point]"
COc1cc(CCN2C(=O)c3cccc4cccc(c34)C2=O)c(S(=O)(=O)N2CCC(C)CC2)cc1OC,–,"inconclusive: 35.5 µM [inhibitor, single point]"
Cc1cc(N2CCN(C)CC2)nc2ccc(NC(=S)N3CCOCC3)cc12,–,"inconclusive: 3.55 µM [inhibitor, full curve]"
Cn1c(-c2cccc([N+](=O)[O-])c2)[n+](C)c2ccccc21,inactive: 6.13%,–
Cc1c(C(=O)Nc2ccc(F)cc2)cn2c(nc3ccccc32)c1C#N,–,"inconclusive: 28.2 µM [inhibitor, single point]"
COc1ccccc1-c1cc(=O)c2cc(O)ccc2o1,inactive: -4.91%,–
O=S(=O)(/N=C/c1c(O)ccc2ccccc12)c1cccs1,–,"inconclusive: 39.8 µM [inhibitor, single point]"
c1cc(C(c2nnnn2C2CCCC2)N2CCOCC2)ccn1 (stereo not given),–,"inconclusive: 35.5 µM [inhibitor, single point]"
CCOC(=O)c1sc(NC(C)=O)cc1C,inactive: 6.47%,–
CCOc1ccccc1C1C(C(N)=O)=C(C)Nc2nc(-c3cccc(C)c3)nn21 (stereo not given),inactive: -1.4%,–
CCN1CCn2c3c(c4cc(C)ccc42)CCCC31 (stereo not given),–,"inconclusive: 28.2 µM [inhibitor, single point]"

SMILES,"activity change, negative = inhibition",Potency
CC(C)(C)c1ccc(OCc2ccc(C(=O)N/N=C/c3ccc(O)c(O)c3)cc2)cc1,–,"inconclusive: 28.2 µM [inhibitor, single point]"
Cc1cc(=O)[nH]c(SCC(=O)Nc2ccccc2C#N)c1C#N,inactive: -14.6%,–
CCC(c1nnnn1Cc1ccco1)N(Cc1cc2cc(C)cc(C)c2[nH]c1=O)CC1CCCO1 (stereo not given),–,"inconclusive: 25.1 µM [inhibitor, partial curve]"
CC1CCCC(C)N1C(=O)Cn1c(SCC(=O)Nc2ccc3c(c2)OCO3)nc2ccccc21 (stereo not given),inactive: 12.7%,–
CCn1cc(C(=O)OC(C)C(=O)Nc2c(C)n(C)n(-c3ccccc3)c2=O)c(=O)c2ccc(C)nc21 (stereo not given),inactive: 2.76%,–
CCOc1ccc(CNC(=O)c2ccc(Sc3ccc(Cl)cc3)c(NC(C)=O)c2)cc1,–,"inconclusive: 31.6 µM [inhibitor, single point]"
Cc1ccc(S(=O)(=O)N(CC(=O)N/N=C/c2cccc3c2OCCO3)c2ccccc2F)cc1,–,"inconclusive: 25.1 µM [inhibitor, partial curve]"
Cn1c(=O)n(Cc2ccccc2Cl)c2ccccc21,inactive: -4.08%,–
O=C(CCl)N(CCCNC(=O)C(F)(F)F)c1ccc([N+](=O)[O-])cc1,inactive: 3.53%,–
Cn1c(N)c(C(=O)COC(=O)CN2C(=O)c3ccccc3C2=O)c(=O)n(C)c1=O,inactive: 7.48%,–
Cc1ccc(-n2ncc3c(NCCCN4CCCC4=O)ncnc32)c(C)c1,–,"inconclusive: 39.8 µM [inhibitor, single point]"
CS(=O)(=O)NN1C(=O)c2ccccc2NC1c1cccs1 (stereo not given),–,"inconclusive: 31.6 µM [inhibitor, partial curve]"
N#CC1=C(Nc2ccccc2Cl)SC(c2ccccc2O)NC1=O (stereo not given),–,"inconclusive: 20 µM [inhibitor, partial curve]"
Cc1[nH]c2c(Br)cccc2c1[C@H]1[C@@H](CC#N)C1(C)C,–,"inconclusive: 35.5 µM [inhibitor, single point]"
Cn1c2ccccc2c(=O)c2c(=O)n(Cc3ccco3)c(-c3ccc(Cl)cc3Cl)nc21,–,"inconclusive: 12.6 µM [inhibitor, partial curve]"
Cc1ccc(C(NC(=O)C2CCCCC2)c2c(O)ccc3ccccc23)cc1 (stereo not given),–,"inconclusive: 35.5 µM [inhibitor, single point]"
COc1ccc(/C=N/n2c(=O)[nH]c3c([nH]c4ccc(Cl)cc43)c2=O)cc1CN1CCCCC1,–,"inconclusive: 28.2 µM [inhibitor, partial curve]"
Cc1cc(N2CCN(c3ccc(F)cc3)CC2)nc2cc(O)ccc12,–,"inconclusive: 35.5 µM [inhibitor, single point]"
COC(=O)[C@@]1(Cc2ccc(OC)cc2)[C@H]2c3cc(C(=O)N4CCCC4)n(Cc4nc5ccccc5[nH]4)c3C[C@H]2CN1C(=O)c1ccccc1,–,"inconclusive: 39.8 µM [inhibitor, single point]"
Cc1cc(C)n2ncc(S(=O)(=O)c3ccccc3)c2n1,–,"inconclusive: 28.2 µM [inhibitor, partial curve]"
COc1ccc(/C=C/C2=NC(=C\N(C)C)/C(=O)O2)cc1,–,"inconclusive: 25.1 µM [inhibitor, partial curve]"
O=C(Cc1ccc(Br)cc1)N/N=C/c1ccc(-c2cccc(C(=O)O)c2)o1,–,"inconclusive: 39.8 µM [inhibitor, single point]"
